One molecule from PMC6677663, “KDM2A-dependent reduction of rRNA transcription on glucose starvation requires HP1 in cells, including triple-negative breast cancer cells” (Oncotarget, 2019) can be followed below.

Amino acid sequences for entries named in this document (tags omitted). A change or cut given only in a name is not applied to a line headed by its entry.
UniProt Q13185: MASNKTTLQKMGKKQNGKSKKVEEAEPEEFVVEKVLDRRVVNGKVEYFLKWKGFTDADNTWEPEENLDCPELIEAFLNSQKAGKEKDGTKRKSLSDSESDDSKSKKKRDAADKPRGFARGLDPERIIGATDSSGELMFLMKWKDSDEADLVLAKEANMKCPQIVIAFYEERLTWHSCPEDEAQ

Assay [1] deals with T1, Recombinant His-tagged HP1γ (CSD) (human, UniProt Q13185 110-183).
T1 construct: HP1γ, human, chromoshadow domain construct, amino acids 110-183; Limits 110-183 are those printed for the HP1γ (CSD) cDNA; the His-tag plasmids are described only as 'His-tag HP1γ and its mutants'; also called CSD of HP1γ; His-HP1γ mutant; source: E. coli DH5α (pCold I), isolated with TALON His-tag resin, dialysed
As to the kind of experiment: pull-down; His-tagged HP1γ forms incubated with GST-KDM2A fragments in 300 mM NaCl, 50 mM Na-phosphate pH 7.0, 4 °C 1 h; collected on TALON resin (1% NP40 washes); SDS-PAGE; both purified.

Assay [2] deals with T2, Recombinant His-tagged HP1γ (human, UniProt Q13185 1-183).
T2 construct: HP1γ, human; the cDNA used encodes 183 amino acids; pCold I vector; also called His-HP1γ; His-tag HP1γ; source: E. coli DH5α (pCold I), isolated with TALON His-tag resin, dialysed
Described as above.

No constants are given. Whether binding was seen depends on the method and setting. Tags and fused reporters may be left off the sequences shown.

Regarding ELSEVEKAKIRGSYLTETLQRPTKELHGTSIVP (domain or fragment, UniProt Q9Y2K7 785-817) [recombinant KDM2A fragment (amino acids 785–817, V801E) fused with GST], the binding result in assay [1] and in assay [2] was “no binding” each time.
